# Results reported in the supplement of paper PMC10126150.
# Sequences with one replicate were seen in a single cluster, so their values are uncertain.
# System: ATP
# Test: switch fluorescence ratio, 500 uM ATP over buffer (Cy3 cluster intensity, sum of 5 cycles each) (fold (ratio)); higher = stronger signal-on switching upon ATP binding; sequences stand for … in TCGTCGGCAGCGTCAGATGTGTATAAGAGACAGTTTTTTTTTTTTTTTTTTTTTTTTT…TC
# Details: aptamer strand: ATP DNA aptamer (quencher-CACCTGGGGGAGTATTGCGGAGGAAGG + anchor), 100 nM annealed; ATP concentration: 500 uM; one replicate
# In short: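 Cy3-labelled switching-strand clusters on a modified Illumina MiSeq flow-cell were annealed to 100 nM quencher-labelled ATP aptamer, imaged in selection buffer, then imaged after 15 min with 500 uM ATP at 22 °C. Five buffer/ATP cycles ran, with NaOH stripping and re-annealing between them. The fluorescence ratio is summed target-cycle over summed buffer-cycle Cy3 intensity per cluster, averaged per switch-domain sequence. Clusters outside 100-1000 RFU were excluded.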
# 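Further: ATP exposure 15 min at 22 °C before imaging.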
row,Sequence,switch fluorescence ratio
1,TCGTGTGCGG,0.902
2,TCGTGTTTCG,1.08
3,TCGTGTTTTG,0.995
4,TCGTTAATAA,1.23
5,TCGTTACGAA,0.989
6,TCGTTAGTTA,0.984
7,TCGTTGAAGG,0.961
8,TCGTTGCAAA,1.16
9,TCGTTTGCTC,1.07
10,TCTAAAAATC,1.04
11,TCTAAACATG,1
12,TCTAAATGTG,1
13,TCTAAATTTC,1.01
14,TCTAACGTTT,1.01
15,TCTAACTGGG,0.989
16,TCTAAGACGA,1
17,TCTAATACG,1.05
18,TCTAATAGAT,0.991
19,TCTAATCGAT,0.979
20,TCTACACCCG,1.09
21,TCTACATATA,1.03
22,TCTACATGTT,0.966
23,TCTACCAGGC,1.19
24,TCTAGAGCAT,1.52
25,TCTAGAGCGT,1.04
26,TCTAGCAGCG,1.04

row,Sequence,switch fluorescence ratio
1,TCTAGGATAT,1.02
2,TCTAGGCTAA,1
3,TCTAGTGCAT,1.05
4,TCTAGTTTAG,1.01
5,TCTATAGGGC,1.07
6,TCTATCGCCT,1.06
7,TCTATCGGGA,0.947
8,TCTATGATCA,0.988
9,TCTATTATAG,0.962
10,TCTATTCTTA,0.963
11,TCTCAAACAT,1.07
12,TCTCAAGGGT,1.03
13,TCTCAGTTAG,0.992
14,TCTCATTATA,0.986
15,TCTCATTGT,0.984
16,TCTCCATCTG,1.02
17,TCTCCCTTTT,0.995
18,TCTCCGATT,1.68
19,TCTCCGCGCG,3.08
20,TCTCGACTGT,0.998
21,TCTCGCCGTG,0.95
22,TCTCGCCTGA,1.02
23,TCTCGCTTAG,3.4
24,TCTCGGATGC,1.03
25,TCTCGGCAAG,3.33
26,TCTCGTCA,1.11

row,Sequence,switch fluorescence ratio
1,TCTCGTGTGA,1.03
2,TCTCTATAAT,1.01
3,TCTCTGCCCT,1.07
4,TCTCTGGGTG,1.06
5,TCTCTGTGTC,1.07
6,TCTCTTAAGC,1.01
7,TCTGAACCGT,1.04
8,TCTGACGGAT,1.08
9,TCTGACGGGG,1.04
10,TCTGAGGGGC,1.04
11,TCTGAGGTGG,0.98
12,TCTGATATGG,0.987
13,TCTGATCTGC,1.01
14,TCTGATGGGT,0.985
15,TCTGATTGAT,1
16,TCTGCATACG,1.97
17,TCTGCGAT,1.24
18,TCTGCTCGGG,0.975
19,TCTGCTGCGG,0.995
20,TCTGGAAGTT,1.02
21,TCTGGAGAA,1.03
22,TCTGGCAGGG,0.991
23,TCTGGCGGTT,1.06
24,TCTGGCTGAC,1.05
25,TCTGGCTTAT,1.04
26,TCTGGGAACC,1

row,Sequence,switch fluorescence ratio
1,TCTGGGCTTA,0.99
2,TCTGGGGA,1.12
3,TCTGGGGAGC,0.93
4,TCTGGTGACT,1.1
5,TCTGTAGGAC,1.11
6,TCTGTATACT,1.06
7,TCTGTATAGG,0.966
8,TCTGTATGG,1.03
9,TCTGTATGGG,0.959
10,TCTGTGAGCT,0.996
11,TCTGTGTCAG,0.947
12,TCTGTTAGGC,1.12
13,TCTGTTGGA,0.991
14,TCTTAAAAAA,1.01
15,TCTTAACACG,1.03
16,TCTTAAGGGT,0.973
17,TCTTAATCC,0.997
18,TCTTACAATG,0.978
19,TCTTACTGCG,1.05
20,TCTTAGATAA,0.962
21,TCTTAGCTTT,0.952
22,TCTTATAACT,1.02
23,TCTTCAGGTT,1
24,TCTTCATGA,1.04
25,TCTTCATTAT,0.972
26,TCTTCGGTGT,0.992

row,Sequence,switch fluorescence ratio
1,TCTTCTGCAA,1.19
2,TCTTCTTGGG,0.982
3,TCTTGACATA,1.03
4,TCTTGAGGAT,1
5,TCTTGCATCC,1.08
6,TCTTGCCGTA,0.987
7,TCTTGCGGGA,1.02
8,TCTTGCTAT,1.02
9,TCTTGGAAAT,0.977
10,TCTTGGAAT,0.994
11,TCTTGGCAAA,1.16
12,TCTTGGCCGC,1.04
13,TCTTGGGCGA,0.999
14,TCTTGGGTTA,0.994
15,TCTTGTGATG,0.985
16,TCTTGTGGGT,0.972
17,TCTTGTTACG,0.928
18,TCTTTATCGT,1.01
19,TCTTTCACAG,0.996
20,TCTTTCCCAG,1.09
21,TCTTTGCTGC,1.16
22,TCTTTGTGGC,1.04
23,TCTTTTGGCT,1.05
24,TGAAAAAGTC,1.06
25,TGAAAAATG,0.925
26,TGAAACCATT,1

row,Sequence,switch fluorescence ratio
1,TGAAACGGAT,1.01
2,TGAAACGTAG,1.03
3,TGAAACTGAT,0.995
4,TGAAACTTTA,0.948
5,TGAAAGGTAG,0.98
6,TGAAATAAAG,1.01
7,TGAAATACGG,1.1
8,TGAAATCTAA,1
9,TGAAATCTAT,0.977
10,TGAAATTGAG,0.986
11,TGAACACTCT,1.05
12,TGAACCCTTT,0.95
13,TGAACCTGTT,0.946
14,TGAACGCAGA,1.22
15,TGAAGACCTA,1.03
16,TGAAGCGCAT,1.08
17,TGAAGCGGGA,1.02
18,TGAAGGGCGG,0.989
19,TGAAGGTCAG,1.01
20,TGAAGTAA,1.06
21,TGAAGTTGGT,1.03
22,TGAAGTTGTT,1.02
23,TGAATAGACA,0.991
24,TGAATCGGTT,0.98
25,TGAATCTCGT,1.05
26,TGAATGAAGT,1.11

row,Sequence,switch fluorescence ratio
1,TGAATTACTA,0.999
2,TGAATTGACA,1.03
3,TGAATTGTAG,0.988
4,TGACAACCTG,1.05
5,TGACAAGTA,1.13
6,TGACACCTAG,1
7,TGACACTCAC,1.31
8,TGACATAGGC,1
9,TGACATATAC,1.53
10,TGACATGC,1.12
11,TGACCCGCTT,1.49
12,TGACCGGTTG,0.989
13,TGACCTCCAT,1.09
14,TGACGAAATT,4.04
15,TGACGAAGTG,1
16,TGACGAATGT,1
17,TGACGATA,1.04
18,TGACGATCAT,1.02
19,TGACGGCATT,1.04
20,TGACGGTCTA,1.02
21,TGACGGTTCA,1.14
22,TGACGTATAG,1.02
23,TGACTAAG,1.04
24,TGACTAAGCT,1.05
25,TGACTCATTC,1.08
26,TGACTTCACA,1.32

row,Sequence,switch fluorescence ratio
1,TGACTTCGGA,1.01
2,TGACTTTAAC,0.973
3,TGAGAAAGAT,0.942
4,TGAGAAGATA,0.969
5,TGAGAATTT,0.994
6,TGAGACACCA,0.986
7,TGAGACCGGT,0.932
8,TGAGACGGGG,0.869
9,TGAGACTG,0.972
10,TGAGAGCAAG,0.991
11,TGAGAGCGGA,0.964
12,TGAGATCCG,1.02
13,TGAGATCGAC,0.966
14,TGAGCAACTC,1.49
15,TGAGCAGTCT,1.06
16,TGAGCATAGA,0.996
17,TGAGCGCTG,0.996
18,TGAGCTAAAC,1.17
19,TGAGCTGGAT,1.04
